Data published in patent US6716822B2, “Therapeutic agent for ischemia which inhibits apoptosis under ischemic condition” (priority 2000, dated 2004).

Test system: HepG2 cells
Assay: HepG2 cell viability under low oxygen (1% v/v) condition, trypan blue exclusion
Type: cell-based, human
Details: not given

Row | Molecule | Concentration at which cells were viable for a certain period of time
1 | CN[C@@H]1[C@@H](O)[C@@H](O[C@@H]2[C@@H](O)[C@H](O[C@H]3O[C@H]([C@@H](C)O)[C@@H](O)[C@H](O)[C@H]3N)[C@@H](N)C[C@H]2N)OC[C@]1(C)O [geneticin] | 10 to 100 µg/mL

Same assay, conditions: HepG2 cells, 1% (v/v) oxygen

Row | Molecule | Enhancement effect on cell viability under hypoxic condition (in words) | Effective concentration exerting enhancement effects on cell viability
2 | O=c1[nH]cc(F)c(=O)[nH]1 [5-fluorouracil] | did not show any effect | 
3 | CC1(C)S[C@@H]2[C@H](NC(=O)[C@H](N)c3ccc(O)cc3)C(=O)N2[C@H]1C(=O)O [amoxillin] | did not show enhancement effect | 
4 | CC1(C)S[C@@H]2[C@H](NC(=O)[C@H](N)c3ccccc3)C(=O)N2[C@H]1C(=O)O [ampicillin] | did not show enhancement effect | 
5 | O=C(N[C@H](CO)[C@H](O)c1ccc([N+](=O)[O-])cc1)C(Cl)Cl [chloramphenicol] | effective | 
6 | O=C(O)c1cn(C2CC2)c2cc(N3CCNCC3)c(F)cc2c1=O [ciprofloxacin] | effective | 
7 | C[C@@H]1C[C@@H]([C@H](O)CC2CC(=O)NC(=O)C2)C(=O)[C@@H](C)C1 [cyclohexamide] | did not show any effect | 
8 | CC[C@H]1OC(=O)[C@H](C)[C@@H](O[C@H]2C[C@@](C)(OC)[C@@H](O)[C@H](C)O2)[C@H](C)[C@@H](O[C@@H]2O[C@H](C)C[C@H](N(C)C)[C@H]2O)[C@](C)(O)C[C@@H](C)C(=O)[C@H](C)[C@@H](O)[C@]1(C)O [erythromycin] | not effective | 
9 | COc1ccc(C[C@H](N)C(=O)N[C@H]2[C@@H](O)[C@H](n3cnc4c(N(C)C)ncnc43)O[C@@H]2CO)cc1 [puromycin] | did not show any effect | 
10 | COc1ccc(CN2CCNCC2)c(OC)c1OC [trimetazidine] | did not show positive results | 
11 | gentamicin | effective | 100 to 1000 µg/mL
12 | neomycin | effective | 
